ChEMBL document CHEMBL1201862, “PubChem BioAssay data set” (2004)
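Exposure lasted 48 hours, with cells grown in 96-well plates and compounds tested at five concentrations. GI50 marks 50% less growth.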 Calls of active or inactive are those of the source. Cut-off read from the data, not from the text of the source: active = GI50 up to about 1.1 µM and inactive = higher.

Tested on: NCI-H322M
Assay: growth of human tumour cells (NCI), 48 h

| SMILES | GI50 |
| --- | --- |
| Nc1ncnc2c1ncn2C1CCC(CO)O1 (stereo not given) | inactive: > 100 µM |
| Cn1c(=S)c2nc(SCCN3CCCC3)[nH]c2n(C)c1=O | inactive: > 100 µM |
| c1c[nH]c(CN2CCN(Cc3ncc[nH]3)CC2)n1 | inactive: > 100 µM |
| COC(=O)c1ccc(CCc2cc(O)c(Br)cc2O)cc1 | inactive: 11.6 µM |
| CSc1cc(N)ccc1/N=N/c1ccc(S(N)(=O)=O)cc1 | inactive: 63.1 µM |
| CCN(CC)CC(C)(C)C(=O)/C=C/c1ccc(/C=C/C(=O)C(C)(C)CN(CC)CC)cc1 | inactive: 1.5 µM |
| COc1cc2nc(-c3ccc4ccccc4c3)nc(O)c2cc1OC | inactive: > 100 µM |
| CSc1nc(N)c2c(-c3ccccc3)c3c(nc2n1)CCCC3 | inactive: > 100 µM |
| C(=C1/CCCCC([n+]2ccccc2)=N1)/c1ccccc1 | inactive: > 100 µM |
| O=C(NO)c1coc2ccccc2c1=O | inactive: 84.3 µM |
| CN1CCN(Cn2nc(COc3ccccc3Cl)n(/N=C/c3ccc(-c4ccc(Cl)cc4Cl)o3)c2=S)CC1 | inactive: 27.9 µM |
| Clc1ccccc1/C=C/c1ccnc2ccccc12 | inactive: 16.2 µM |
| Cc1cccc(C)c1NC(=O)C(C#N)C1=C(Cl)C(=O)c2ccccc2C1=O (stereo not given) | inactive: 16.1 µM |
| CC1(C)N=c2c(ncn2CCO)=C(C(N)=O)N1 | inactive: > 100 µM |
| Cc1nn2c(=O)c([N+](=O)[O-])c(/C=C/c3ccc(F)cc3)nc2s1 | inactive: 9.08 µM |
| N#Cc1ccc(/N=C(/NCC(=O)O)Nc2ccc3ccccc3c2)cc1 | inactive: > 10 µM |
| COC(=O)c1cc2c(nc1C)-c1ccccc1OS2(=O)=O | inactive: > 100 µM |
| O=c1c(=O)c2cscc2c1=O | inactive: 15.7 µM |
| CC(=O)NNc1nc(C)c(C(/C=C/c2ccc([N+](=O)[O-])cc2)=N/NC(N)=S)s1 | inactive: > 100 µM |
| Clc1cccc(Cl)c1C1SCc2nc3cc4ccccc4cc3n21 (stereo not given) | inactive: > 100 µM |

| SMILES | GI50 |
| --- | --- |
| COc1ccc2c(=O)oc3c(OC)cc(CCN(C)C)c4c(=O)oc1c2c34 | inactive: 16.3 µM |
| CCOC(=O)CCCc1cc(O)c2c(C)c3[nH]c4ccc(Cl)cc4c3c(C)c2n1 | inactive: 49.4 µM |
| CC(C)(C)OC(=O)N1C(C2=COc3ccccc3O2)=COc2cccnc21 | inactive: 1.83 µM |
| CCOC(=O)C1C(=O)C=C(c2cc(C)ccc2O)CC1c1cccc(Br)c1 (stereo not given) | inactive: 22.3 µM |
| N#CC(c1ccccc1)c1nc2ccc(N)cc2[n+]([O-])c1C(C#N)c1ccccc1 (stereo not given) | inactive: > 100 µM |
| CC(C)C1=CC2=C(C(=O)C1=O)C13CCCC(C)(C)C1CC2OC3=O (stereo not given) | inactive: 39.6 µM |
| C=Cc1ccc(C)[n+](C[Si](C)(C)O[Si](C)(C)C)c1 | inactive: > 100 µM |
| CN(C)c1ccc(/C=C/c2ccc(/C=C/c3ccc(N(C)C)cc3)cc2)cc1 | inactive: > 100 µM |
| CC(C)(C)OC(=O)NC1CC2(C=C(Br)C(=O)C(Br)=C2)OC1=O (stereo not given) | inactive: 28.2 µM |
| O=C1CCCCC(=O)OC2(CCCCC2=O)CC1 (stereo not given) | inactive: > 100 µM |
| C/C(Sc1ccccc1)=C1/CCCN(Cc2ccccc2)C1 | inactive: 33.9 µM |
| COC(=O)C1=C(C(=O)OC)SC(=C2c3ccsc3-c3sccc32)S1 | inactive: 59.3 µM |
| C1=C(c2ccccc2)SC=C(c2ccccc2)S1 | inactive: 56 µM |
| Cc1nn(-c2ccccc2)c2nc3c(c(C)nn3-c3ccccc3)c(-c3ccccc3Br)c12 | inactive: > 100 µM |
| CCOC(=O)C(C)(C)Oc1ccc2c(C)c(-c3ccc(Cl)cc3)c(=O)oc2c1 | inactive: > 100 µM |
| NC(Cc1c[nH]c(I)n1)C(=O)O (stereo not given) | inactive: > 100 µM |
| O=C(Nc1ccccn1)c1cc2c(cc1Cl)Sc1nccn1S2(=O)=O | inactive: 17 µM |
| O=C(O)c1cncc(C(=O)O)c1 | inactive: > 100 µM |
| Cc1c2cc[n+](C)cc2c(C)c2c1oc1ccccc12 | inactive: 4.21 µM |
| COc1cc2oc(-c3ccc(O)cc3)cc(=O)c2c(OC)c1O | inactive: 84.7 µM |
